Where a chain is given by its changes, count along the chain named. Names and notes keep the numbering of the source. Values joined by “and” are separate entries in the source; they are usually repeats but may differ in a detail not shown here. Equal values may be shown once.
B1: huNRG1(S177-F229)(NRGE1D) huIgG1z SELF2 Fc (Fc fusion)
chain: SHLVKCGESHKSFCVNGGECYMVEGSSIPSRYLCKCPNEFTGDRCQEDFMASFGGGGEGGGGAGGGG[letters of human IgG1 Fc with R292C N297G V302C (EU numbers) not shown]
B2: huNRG1(S177-F229)(NRGE1C)(NRGmod)::G4::huFcSEFL2 (Pb) (Fc fusion)
chain: SHLVKCGEKHKSFCVNGGECFMIEGPSNPSRYLCKCPNEFTGDRCQEDFMASFAAAEELYQGGGG[letters of human IgG1 Fc with R292C N297G V302C (EU numbers) not shown]
B3: huNRG1(S177-F229)(NRGE1D)((G4E)2)::G4::huFcSEFL2 (Pb) (Fc fusion)
chain: B1 chain with A63E
B4: huNRG1(S177-F229)(NRGE1D)::(G4A)2:G4::huFcSEFL2 (Pb) (Fc fusion)
chain: B1 chain with E58A
B5: huNRG1(S177-F229)(NRGE1D)::(G4S)2::G4::huFcSEFL2 (Pb) (Fc fusion)
chain: B1 chain with E58S, A63S
B6: huNRG1(S177-F229)(NRGE1D)(G4E)::G4S::G4::huFcSEFL2 (Pb) (Fc fusion)
chain: B1 chain with A63S
B7: huNRG1(S177-F229)(NRGE1D)(NRGmod)::G4::huFcSEFL2 (Pb) (Fc fusion)
chain: B2 chain with K9S, F21Y, I23V, P26S, N28I
B8: huNRG1(S177-Q237)(3H8)::3xG4S::huFcSEFL2 (Pb) (Fc fusion)
chain: SHLVKCGEKHKSFCVNGGECYMVEGSSIPSRYLCKCPNEFTGDRCQEDFMASFYKAEELYQGGGGSGGGGSGGGGS[letters of human IgG1 Fc with R292C N297G V302C (EU numbers) not shown]

What follows are binders tested against ErbB4 on neonatal rat cardiomyocytes (rat) (UniProt Q62956) (assay: cell-based or functional assay).
Sequence of UniProt Q62956 (Q62956 26-1308): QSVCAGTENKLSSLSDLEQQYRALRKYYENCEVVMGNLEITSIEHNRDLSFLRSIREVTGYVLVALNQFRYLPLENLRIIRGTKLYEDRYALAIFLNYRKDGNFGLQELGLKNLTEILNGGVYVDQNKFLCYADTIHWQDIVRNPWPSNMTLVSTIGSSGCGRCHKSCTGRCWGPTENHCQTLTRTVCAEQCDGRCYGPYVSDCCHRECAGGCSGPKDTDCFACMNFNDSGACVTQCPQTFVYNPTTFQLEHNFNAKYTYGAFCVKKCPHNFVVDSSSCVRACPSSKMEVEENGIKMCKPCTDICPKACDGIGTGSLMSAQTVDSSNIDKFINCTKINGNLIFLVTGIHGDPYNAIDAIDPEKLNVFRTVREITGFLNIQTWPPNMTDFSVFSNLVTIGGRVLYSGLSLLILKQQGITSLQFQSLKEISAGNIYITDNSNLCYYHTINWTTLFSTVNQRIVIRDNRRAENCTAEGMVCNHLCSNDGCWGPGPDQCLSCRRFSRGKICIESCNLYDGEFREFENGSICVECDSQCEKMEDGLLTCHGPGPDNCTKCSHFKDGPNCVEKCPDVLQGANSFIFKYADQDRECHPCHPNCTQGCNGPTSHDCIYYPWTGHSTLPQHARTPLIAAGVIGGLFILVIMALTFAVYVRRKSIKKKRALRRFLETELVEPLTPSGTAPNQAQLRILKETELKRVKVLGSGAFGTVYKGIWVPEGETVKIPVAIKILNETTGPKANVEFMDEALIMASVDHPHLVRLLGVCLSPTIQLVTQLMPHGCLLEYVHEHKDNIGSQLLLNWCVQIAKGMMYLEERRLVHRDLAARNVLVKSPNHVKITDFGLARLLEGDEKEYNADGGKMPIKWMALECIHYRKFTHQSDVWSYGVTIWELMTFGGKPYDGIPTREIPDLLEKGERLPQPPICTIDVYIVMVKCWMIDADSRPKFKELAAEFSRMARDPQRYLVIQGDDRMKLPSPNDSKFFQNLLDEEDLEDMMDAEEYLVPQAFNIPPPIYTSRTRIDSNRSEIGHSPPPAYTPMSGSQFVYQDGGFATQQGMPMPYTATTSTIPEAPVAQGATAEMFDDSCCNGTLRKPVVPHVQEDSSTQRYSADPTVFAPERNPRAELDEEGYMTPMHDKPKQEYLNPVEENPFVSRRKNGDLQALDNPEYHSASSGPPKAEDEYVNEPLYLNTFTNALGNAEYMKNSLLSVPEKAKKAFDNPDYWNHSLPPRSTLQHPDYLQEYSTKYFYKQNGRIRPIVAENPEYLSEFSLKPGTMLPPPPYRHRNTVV
With B1 the CM % Agonism AVG was 82.2%, the Cardiomyocyte (CM) (ErbB4) Avg EC50 was 0.48 nM and the Selectivity SC/CM was > 10000. In the case of B2, the CM % Agonism AVG is reported as 75.5%, the Cardiomyocyte (CM) (ErbB4) Avg EC50 is reported as 0.87 nM and the Selectivity SC/CM is reported as > 10000. For B3, the CM % Agonism AVG was 88.2% and 84.6% and the Selectivity SC/CM was > 10000. For B4, the CM % Agonism AVG was 78.8%, the Cardiomyocyte (CM) (ErbB4) Avg EC50 was 0.32 nM and the Selectivity SC/CM was > 10000. For B5, the CM % Agonism AVG was 80.5%, the Cardiomyocyte (CM) (ErbB4) Avg EC50 was 0.46 nM and the Selectivity SC/CM was > 10000. For B6, the CM % Agonism AVG was 85%, the Cardiomyocyte (CM) (ErbB4) Avg EC50 was 0.35 nM and the Selectivity SC/CM was > 10000. With B7 the CM % Agonism AVG was 74.9%, the Cardiomyocyte (CM) (ErbB4) Avg EC50 was 0.54 nM and the Selectivity SC/CM was > 10000. In the case of B8, the Cardiomyocyte (CM) (ErbB4) Avg EC50 is reported as 0.2 nM and the Selectivity SC/CM is reported as > 10000.

What follows are binders tested against ErbB3 on rat Schwann cells (rat) (UniProt Q62799) (assay: cell-based or functional assay).
Sequence of UniProt Q62799 (Q62799 20-1339): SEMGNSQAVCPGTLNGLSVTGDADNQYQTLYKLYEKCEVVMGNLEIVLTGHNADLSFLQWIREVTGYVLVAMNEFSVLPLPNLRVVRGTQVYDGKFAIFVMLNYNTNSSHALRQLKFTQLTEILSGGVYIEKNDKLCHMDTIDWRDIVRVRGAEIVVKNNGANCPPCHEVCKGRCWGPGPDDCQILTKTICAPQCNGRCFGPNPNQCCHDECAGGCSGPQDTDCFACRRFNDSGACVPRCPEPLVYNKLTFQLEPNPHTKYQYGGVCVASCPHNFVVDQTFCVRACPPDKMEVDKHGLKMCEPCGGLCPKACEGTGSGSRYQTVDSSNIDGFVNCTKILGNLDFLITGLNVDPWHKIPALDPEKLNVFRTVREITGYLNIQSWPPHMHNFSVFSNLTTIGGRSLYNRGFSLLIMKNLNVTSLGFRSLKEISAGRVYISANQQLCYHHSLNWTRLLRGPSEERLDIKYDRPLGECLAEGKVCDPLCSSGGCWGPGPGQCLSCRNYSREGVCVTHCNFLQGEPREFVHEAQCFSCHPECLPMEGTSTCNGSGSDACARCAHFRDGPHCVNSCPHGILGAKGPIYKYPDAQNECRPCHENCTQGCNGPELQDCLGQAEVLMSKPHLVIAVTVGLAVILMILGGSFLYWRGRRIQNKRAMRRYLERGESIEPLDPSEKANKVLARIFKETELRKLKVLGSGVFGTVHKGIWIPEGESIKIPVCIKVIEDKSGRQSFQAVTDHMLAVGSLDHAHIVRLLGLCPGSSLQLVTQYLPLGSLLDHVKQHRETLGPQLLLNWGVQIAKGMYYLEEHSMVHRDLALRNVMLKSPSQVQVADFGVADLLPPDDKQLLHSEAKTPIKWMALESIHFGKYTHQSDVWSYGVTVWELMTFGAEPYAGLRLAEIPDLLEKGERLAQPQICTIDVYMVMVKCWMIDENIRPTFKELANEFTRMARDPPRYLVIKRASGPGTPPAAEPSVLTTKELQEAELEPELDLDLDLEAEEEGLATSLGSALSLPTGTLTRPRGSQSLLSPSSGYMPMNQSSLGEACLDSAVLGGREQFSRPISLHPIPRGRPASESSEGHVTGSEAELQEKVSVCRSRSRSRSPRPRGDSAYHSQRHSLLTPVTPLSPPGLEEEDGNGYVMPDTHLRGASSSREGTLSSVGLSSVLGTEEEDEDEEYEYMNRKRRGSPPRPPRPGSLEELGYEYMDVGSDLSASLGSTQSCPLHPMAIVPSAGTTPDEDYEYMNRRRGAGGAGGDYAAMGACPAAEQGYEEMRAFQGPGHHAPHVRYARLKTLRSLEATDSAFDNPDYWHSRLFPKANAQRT
In the case of B1, the Schwann cells (SC) (ErbB3) Avg EC50 is reported as 10000 nM. B2 was tested, and the Schwann cells (SC) (ErbB3) Avg EC50 was > 10000 nM. B3 was tested, and the Schwann cells (SC) (ErbB3) Avg EC50 was > 10000 nM. B4 was tested, and the Schwann cells (SC) (ErbB3) Avg EC50 was > 10000 nM. For B5, the Schwann cells (SC) (ErbB3) Avg EC50 was > 10000 nM. With B6 the Schwann cells (SC) (ErbB3) Avg EC50 was > 10000 nM. With B7 the Schwann cells (SC) (ErbB3) Avg EC50 was > 10000 nM. With B8 the Schwann cells (SC) (ErbB3) Avg EC50 was > 10000 nM.

From patent US20220402985A1
